{"source": "paper PMC9911399", "about": "“Two distinct binding modes provide the RNA-binding protein RbFox with extraordinary sequence specificity”", "binders": {"B1": {"name": "AAAACUA (DNA:RNA)", "RNA": "GGGAGACCGGAAUUCAGAUUGUCCAAAACUAUUAAAUCCCGUCGUAGCCACCA", "DNA 1": "CAATCTGAATTCCGGTCTCCC", "DNA 2": "TGGTGGCTACGACGGGATT"}, "B2": {"name": "UUCUCAC (DNA:RNA)", "RNA": "B1 RNA with A25U, A26U, A27C, A28U, U30A, A31C", "DNA 1": "CAATCTGAATTCCGGTCTCCC", "DNA 2": "TGGTGGCTACGACGGGATT"}, "B3": {"name": "ACAUACG (DNA:RNA)", "RNA": "B1 RNA with A26C, A28U, C29A, U30C, A31G", "DNA 1": "CAATCTGAATTCCGGTCTCCC", "DNA 2": "TGGTGGCTACGACGGGATT"}, "B4": {"name": "CAUAGCC (DNA:RNA)", "RNA": "B1 RNA with A25C, A27U, C29G, U30C, A31C", "DNA 1": "CAATCTGAATTCCGGTCTCCC", "DNA 2": "TGGTGGCTACGACGGGATT"}, "B5": {"name": "GUGACUC (DNA:RNA)", "RNA": "B1 RNA with A25G, A26U, A27G, A31C", "DNA 1": "CAATCTGAATTCCGGTCTCCC", "DNA 2": "TGGTGGCTACGACGGGATT"}, "B6": {"name": "UAAGCGA (DNA:RNA)", "RNA": "B1 RNA with A25U, A28G, U30G", "DNA 1": "CAATCTGAATTCCGGTCTCCC", "DNA 2": "TGGTGGCTACGACGGGATT"}, "B7": {"name": "GAGUCGA (DNA:RNA)", "RNA": "B1 RNA with A25G, A27G, A28U, U30G", "DNA 1": "CAATCTGAATTCCGGTCTCCC", "DNA 2": "TGGTGGCTACGACGGGATT"}, "B8": {"name": "AACUCGU (DNA:RNA)", "RNA": "B1 RNA with A27C, A28U, U30G, A31U", "DNA 1": "CAATCTGAATTCCGGTCTCCC", "DNA 2": "TGGTGGCTACGACGGGATT"}, "B9": {"name": "GAACGUU (DNA:RNA)", "RNA": "B1 RNA with A25G, A28C, C29G, A31U", "DNA 1": "CAATCTGAATTCCGGTCTCCC", "DNA 2": "TGGTGGCTACGACGGGATT"}, "B10": {"name": "GUGCUGG (DNA:RNA)", "RNA": "GGGAGACCGGAAUUCAGAUUGUCCGUGCUGGUUAAAUCCCGUCGUAGCCACCA", "DNA 1": "CAATCTGAATTCCGGTCTCCC", "DNA 2": "TGGTGGCTACGACGGGATT"}, "B11": {"name": "GUUGAUA (DNA:RNA)", "RNA": "B1 RNA with A25G, A26U, A27U, A28G, C29A", "DNA 1": "CAATCTGAATTCCGGTCTCCC", "DNA 2": "TGGTGGCTACGACGGGATT"}, "B12": {"name": "ACGUACU (DNA:RNA)", "RNA": "B1 RNA with A26C, A27G, A28U, C29A, U30C, A31U", "DNA 1": "CAATCTGAATTCCGGTCTCCC", "DNA 2": "TGGTGGCTACGACGGGATT"}, "B13": {"name": "CACACGU (DNA:RNA)", "RNA": "B1 RNA with A25C, A27C, U30G, A31U", "DNA 1": "CAATCTGAATTCCGGTCTCCC", "DNA 2": "TGGTGGCTACGACGGGATT"}, "B14": {"name": "ACGUAUC (DNA:RNA)", "RNA": "B1 RNA with A26C, A27G, A28U, C29A, A31C", "DNA 1": "CAATCTGAATTCCGGTCTCCC", "DNA 2": "TGGTGGCTACGACGGGATT"}, "B15": {"name": "GAACCAG (DNA:RNA)", "RNA": "B1 RNA with A25G, A28C, U30A, A31G", "DNA 1": "CAATCTGAATTCCGGTCTCCC", "DNA 2": "TGGTGGCTACGACGGGATT"}, "B16": {"name": "ACUCGCA (DNA:RNA)", "RNA": "B1 RNA with A26C, A27U, A28C, C29G, U30C", "DNA 1": "CAATCTGAATTCCGGTCTCCC", "DNA 2": "TGGTGGCTACGACGGGATT"}, "B17": {"name": "CUAAAUU (DNA:RNA)", "RNA": "B1 RNA with A25C, A26U, C29A, A31U", "DNA 1": "CAATCTGAATTCCGGTCTCCC", "DNA 2": "TGGTGGCTACGACGGGATT"}, "B18": {"name": "UUUUCGG (DNA:RNA)", "RNA": "B10 RNA with G25U, G27U, C28U, U29C", "DNA 1": "CAATCTGAATTCCGGTCTCCC", "DNA 2": "TGGTGGCTACGACGGGATT"}, "B19": {"name": "ACAGCGG (DNA:RNA)", "RNA": "B1 RNA with A26C, A28G, U30G, A31G", "DNA 1": "CAATCTGAATTCCGGTCTCCC", "DNA 2": "TGGTGGCTACGACGGGATT"}, "B20": {"name": "CUUCGAA (DNA:RNA)", "RNA": "B10 RNA with G25C, G27U, U29G, G30A, G31A", "DNA 1": "CAATCTGAATTCCGGTCTCCC", "DNA 2": "TGGTGGCTACGACGGGATT"}, "B21": {"name": "CCAGCAA (DNA:RNA)", "RNA": "B1 RNA with A25C, A26C, A28G, U30A", "DNA 1": "CAATCTGAATTCCGGTCTCCC", "DNA 2": "TGGTGGCTACGACGGGATT"}, "B22": {"name": "UGUAUGA (DNA:RNA)", "RNA": "B1 RNA with A25U, A26G, A27U, C29U, U30G", "DNA 1": "CAATCTGAATTCCGGTCTCCC", "DNA 2": "TGGTGGCTACGACGGGATT"}, "B23": {"name": "AUGCGAU (DNA:RNA)", "RNA": "B10 RNA with G25A, U29G, G30A, G31U", "DNA 1": "CAATCTGAATTCCGGTCTCCC", "DNA 2": "TGGTGGCTACGACGGGATT"}, "B24": {"name": "UAACUUU (DNA:RNA)", "RNA": "B1 RNA with A25U, A28C, C29U, A31U", "DNA 1": "CAATCTGAATTCCGGTCTCCC", "DNA 2": "TGGTGGCTACGACGGGATT"}, "B25": {"name": "CUAUAAU (DNA:RNA)", "RNA": "B1 RNA with A25C, A26U, A28U, C29A, U30A, A31U", "DNA 1": "CAATCTGAATTCCGGTCTCCC", "DNA 2": "TGGTGGCTACGACGGGATT"}, "B26": {"name": "GUCGUAG (DNA:RNA)", "RNA": "B10 RNA with G27C, C28G, G30A", "DNA 1": "CAATCTGAATTCCGGTCTCCC", "DNA 2": "TGGTGGCTACGACGGGATT"}, "B27": {"name": "UAACUAG (DNA:RNA)", "RNA": "B10 RNA with G25U, U26A, G27A, G30A", "DNA 1": "CAATCTGAATTCCGGTCTCCC", "DNA 2": "TGGTGGCTACGACGGGATT"}, "B28": {"name": "AUCCUCC (DNA:RNA)", "RNA": "B10 RNA with G25A, G27C, G30C, G31C", "DNA 1": "CAATCTGAATTCCGGTCTCCC", "DNA 2": "TGGTGGCTACGACGGGATT"}, "B29": {"name": "CCGGUUG (DNA:RNA)", "RNA": "B10 RNA with G25C, U26C, C28G, G30U", "DNA 1": "CAATCTGAATTCCGGTCTCCC", "DNA 2": "TGGTGGCTACGACGGGATT"}, "B30": {"name": "CCACGAA (DNA:RNA)", "RNA": "B1 RNA with A25C, A26C, A28C, C29G, U30A", "DNA 1": "CAATCTGAATTCCGGTCTCCC", "DNA 2": "TGGTGGCTACGACGGGATT"}, "B31": {"name": "CUUUUUC (DNA:RNA)", "RNA": "B10 RNA with G25C, G27U, C28U, G30U, G31C", "DNA 1": "CAATCTGAATTCCGGTCTCCC", "DNA 2": "TGGTGGCTACGACGGGATT"}}, "note": "Substitutions are numbered along the chain they refer to; changes in the protein carry UniProt numbers. The list shows a part of the results.", "data": [{"molecular_target": "T1, RBFOX1 RRM (Homo sapiens, UniProt Q9NWB1 109-208)", "T1 sequence": "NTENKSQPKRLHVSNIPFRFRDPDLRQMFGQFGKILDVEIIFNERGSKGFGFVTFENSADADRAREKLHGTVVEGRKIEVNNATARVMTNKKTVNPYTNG", "assay": "EMSA; HiTS-Eq, 1 nM pool, 10 min; buffer printed only for the single-RNA assays: 10 mM Tris pH 7.5, 150 mM NaCl, 3.4 mM EDTA, 0.001% NP-40, 30 C", "settings": "tags: His6 N-terminal (pET28a); label: 5' 32P", "summary_of_the_method": "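Relative association constants, normalised to the cognate motif, were derived by comparing read counts of each RNA species with those of the control reaction. The RNA sequenced was the free fraction, separated by 8% native PAGE after a 10 min equilibration in 50 µL of 1 nM 5′-radiolabelled RNA (7 randomized nucleotides) with increasing concentrations of purified wild-type or mutant RbFox RRM.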", "values": [{"binder": "B1", "binding signal": "0.00178 KA relative to UGCAUGU"}, {"binder": "B2", "binding signal": "0.00382 KA relative to UGCAUGU"}, {"binder": "B3", "binding signal": "0.003 KA relative to UGCAUGU"}, {"binder": "B4", "binding signal": "0.00373 KA relative to UGCAUGU"}, {"binder": "B5", "binding signal": "0.0185 KA relative to UGCAUGU"}, {"binder": "B6", "binding signal": "0.0108 KA relative to UGCAUGU"}, {"binder": "B7", "binding signal": "0.017 KA relative to UGCAUGU"}, {"binder": "B8", "binding signal": "0.00286 KA relative to UGCAUGU"}, {"binder": "B9", "binding signal": "0.0166 KA relative to UGCAUGU"}, {"binder": "B10", "binding signal": "0.0295 KA relative to UGCAUGU"}, {"binder": "B11", "binding signal": "0.012 KA relative to UGCAUGU"}, {"binder": "B12", "binding signal": "0.00208 KA relative to UGCAUGU"}, {"binder": "B13", "binding signal": "0.0014 KA relative to UGCAUGU"}, {"binder": "B14", "binding signal": "0.00496 KA relative to UGCAUGU"}, {"binder": "B15", "binding signal": "0.0045 KA relative to UGCAUGU"}, {"binder": "B16", "binding signal": "0.0123 KA relative to UGCAUGU"}, {"binder": "B17", "binding signal": "0.00392 KA relative to UGCAUGU"}, {"binder": "B18", "binding signal": "0.0135 KA relative to UGCAUGU"}, {"binder": "B19", "binding signal": "0.00644 KA relative to UGCAUGU"}, {"binder": "B20", "binding signal": "0.0115 KA relative to UGCAUGU"}, {"binder": "B21", "binding signal": "0.00261 KA relative to UGCAUGU"}, {"binder": "B22", "binding signal": "0.0267 KA relative to UGCAUGU"}, {"binder": "B23", "binding signal": "0.00995 KA relative to UGCAUGU"}, {"binder": "B24", "binding signal": "0.00864 KA relative to UGCAUGU"}, {"binder": "B25", "binding signal": "0.00317 KA relative to UGCAUGU"}, {"binder": "B26", "binding signal": "0.0144 KA relative to UGCAUGU"}, {"binder": "B27", "binding signal": "0.00442 KA relative to UGCAUGU"}, {"binder": "B28", "binding signal": "0.00195 KA relative to UGCAUGU"}, {"binder": "B29", "binding signal": "0.0151 KA relative to UGCAUGU"}, {"binder": "B30", "binding signal": "0.00651 KA relative to UGCAUGU"}, {"binder": "B31", "binding signal": "0.0113 KA relative to UGCAUGU"}]}]}
